# Data from paper PMC4336329 (PLoS ONE, 2015).
# Among all 310,000 compounds or so, about 14,000 (4.5%) showed an effect of 50% or more. The effect is printed as a negative number. The list shows a part of the results.
# Target: human ether-à-go-go-related gene (hERG) potassium channel (human, UniProt Q12809)
# Experiment: primary screen, population patch clamp on CHO cells stably expressing hERG
# 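Also: peak tail current of the secondary pulse compared with the same well before compound.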
# Chain of human ether-à-go-go-related gene (hERG) potassium channel (Q12809 whole entry, looked up): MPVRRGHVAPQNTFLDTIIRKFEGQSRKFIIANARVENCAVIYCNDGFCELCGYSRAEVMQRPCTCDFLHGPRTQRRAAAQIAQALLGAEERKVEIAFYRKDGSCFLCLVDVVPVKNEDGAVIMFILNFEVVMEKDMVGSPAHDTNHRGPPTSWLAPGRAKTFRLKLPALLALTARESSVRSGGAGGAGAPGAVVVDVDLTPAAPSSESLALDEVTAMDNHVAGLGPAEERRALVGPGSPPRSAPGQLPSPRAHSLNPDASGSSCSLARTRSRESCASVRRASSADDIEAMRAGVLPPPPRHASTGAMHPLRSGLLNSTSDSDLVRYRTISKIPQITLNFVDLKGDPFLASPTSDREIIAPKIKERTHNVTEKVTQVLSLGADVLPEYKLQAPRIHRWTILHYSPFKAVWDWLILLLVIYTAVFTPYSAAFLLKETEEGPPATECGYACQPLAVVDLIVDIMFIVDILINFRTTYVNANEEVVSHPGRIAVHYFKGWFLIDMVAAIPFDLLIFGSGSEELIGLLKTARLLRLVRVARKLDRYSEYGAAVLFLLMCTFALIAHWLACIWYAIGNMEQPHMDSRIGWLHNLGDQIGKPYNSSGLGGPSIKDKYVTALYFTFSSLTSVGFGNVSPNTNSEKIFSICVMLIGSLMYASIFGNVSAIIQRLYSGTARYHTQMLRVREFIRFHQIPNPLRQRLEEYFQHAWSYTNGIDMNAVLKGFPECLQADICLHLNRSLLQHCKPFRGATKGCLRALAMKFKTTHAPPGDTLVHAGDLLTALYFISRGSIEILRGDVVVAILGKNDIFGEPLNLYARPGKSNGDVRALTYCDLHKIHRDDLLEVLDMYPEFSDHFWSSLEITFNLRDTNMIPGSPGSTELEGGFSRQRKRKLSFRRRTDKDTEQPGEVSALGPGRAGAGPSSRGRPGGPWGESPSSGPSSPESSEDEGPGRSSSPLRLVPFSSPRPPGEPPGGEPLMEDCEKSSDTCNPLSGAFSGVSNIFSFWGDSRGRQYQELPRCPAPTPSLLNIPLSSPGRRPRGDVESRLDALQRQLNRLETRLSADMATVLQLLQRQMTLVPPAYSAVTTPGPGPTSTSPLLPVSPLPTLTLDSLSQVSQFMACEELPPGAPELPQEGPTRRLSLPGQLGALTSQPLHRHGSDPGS
row,SMILES,"hERG current change (%, negative = inhibition) at 10uM"
1,c1ccc(-c2nc(-n3ccnc3)nc(-n3ccnc3)n2)cc1,-69.4%
2,COc1ccc(NC(=O)C2CCCN(S(=O)(=O)c3c(C)[nH]c(=O)[nH]c3=O)C2)cc1OC (stereo not shown),30.8%
3,Cc1occc1C(=O)N=Nc1c(O)n(C)c2ccccc12,15.3%
4,Cl.N=c1n(Cc2ccccc2Cl)c2ccccc2n1CC(O)c1ccco1 (stereo not shown),-56.7%
5,Cc1cc(C)n(CC(=O)NNC(=O)c2ccc(NC(=O)CC#N)cc2)n1,5.56%
6,Cc1cc(C)nc(N(C#N)Cc2cccc([N+](=O)[O-])c2)n1,-15.3%
7,COc1ccc(C2c3[nH]c4ccccc4c3CCN2Cc2ccoc2)c(F)c1 (stereo not shown),-36.9%
8,COc1ccc(CN(C)CC(=O)Nc2ccc(Cl)cc2C(F)(F)F)c(OC)c1.O=C(O)C(=O)O,2.46%
9,CCOc1ccccc1C1N(c2ccc(OC)cc2)C(=O)C2CCCN21 (stereo not shown),12.1%
10,O=c1c2cccnc2[nH]c(=S)n1CCCN1CCN(c2ccccc2F)CC1,-13.7%
11,CCOc1ccc(OCC)c(NC(=O)CN2CCN(CC)CC2)c1.Cl,-43.3%
12,COc1ccc(NC2CCCN(C(=O)CCc3cn[nH]c3)C2)cc1 (stereo not shown),-14.6%
13,CC(=O)c1ccc(S(=O)(=O)NC(=O)NC2CCCCC2)cc1,11.3%
14,CN(Cc1ccc(Cl)cc1Cl)C(=O)c1cccc(S(=O)(=O)N2CCN(c3ccccc3)CC2)c1,0.587%
15,CCOc1cc(N2CCOCC2)c(OCC)cc1NC(=O)COC(=O)CCc1c[nH]c2ccccc12,1.87%
16,COc1cccc(/C=N/NC(=O)C(=O)Nc2ccccc2OC(F)(F)C(F)F)c1,-0.33%
17,CCCCNC(=O)c1ccc(CS(=O)(=O)c2cccc(C(F)(F)F)c2)o1,-53.5%
18,COc1ccccc1Nc1nnc(SCC(=O)N2CCCC2)s1,1.27%
19,CCN(CC)S(=O)(=O)c1cccc(NC(=O)CSc2nc3ccccc3[nH]2)c1,-28.2%
20,N=c1oc2ccccc2cc1-c1nc2ccccc2c(=O)[nH]1,10.3%
21,CCCC(=O)Nc1c(-c2ccccc2)c(=O)c(C)nn1-c1ccc(Cl)cc1,2.46%
22,C=CCNC(=O)CSc1nnc(C(CC)N(C)C)n1C1CCCCC1 (stereo not shown),13.5%

row,SMILES,"hERG current change (%, negative = inhibition) at 10uM"
1,CC(=O)Nc1cc2c(cc1Br)OCCO2,21.5%
2,Cc1onc(-c2ccccc2)c1-c1csc(COc2ccccc2)n1,11.5%
3,COc1ccc(CC(=O)NNC(=O)COc2ccc3ccccc3c2)cc1,7.48%
4,COC(=O)C1=C(c2cccc(OCc3ccccc3)c2)C[C@@H]2CC[C@H]1N2C(=O)NNCc1ccccc1,10.8%
5,N#CCC(=O)N/N=C/c1ccc(Sc2nc3ccccc3s2)o1,-0.512%
6,COc1ccc(Cc2nnc(SCc3nc4ccccc4c(=O)[nH]3)n2C)cc1,-11.9%
7,O=C(Nc1ccc(N2CCOCC2)cc1)c1ccc([N+](=O)[O-])cc1,10.4%
8,COc1ccc(-c2nc(N)ncc2Oc2ccccc2Br)c(O)c1,-4.67%
9,CCOC(=O)Cc1nnc(NC(=O)CCc2ccccc2)s1,5.15%
10,O=C(COc1ccc(Cl)cc1)Nc1ncccn1,-5.85%
11,CNC(=O)C(=O)NCC1OCCN1S(=O)(=O)c1ccc(OC)c(OC)c1 (stereo not shown),14.4%
12,COc1nnc(-c2ccc(N3CCCCC3)c(N)c2)c2ccccc12,-13%
13,Cn1c(=O)c2c(nc(NCCOc3ccc(C(C)(C)C)cc3)n2C)n(C)c1=O,-1.05%
14,NS(=O)(=O)c1ccc(CCNC(=O)COC(=O)C2CCN(c3ccc(C(F)(F)F)cn3)CC2)cc1,-34.9%
15,CC1CCCCC1NC(=O)C1CCN(S(=O)(=O)c2ccc3c(c2)CCC(=O)N3)CC1 (stereo not shown),6.51%
16,COc1ccc(-c2cn(Cc3ccc(C(N)=O)cc3)c(CCN)n2)cc1,-13.9%
17,CC(=O)c1c(O)cc(C(C)C)n(-c2ccccc2)c1=O,-3.24%
18,COc1ccc2c(c1O)-c1ccccc1CCN(C)C2.Cl,-0.905%
19,Cn1nnnc1SCC(=O)N1c2ccccc2Sc2ccc(Cl)cc21,-16.4%
20,Cn1c(-c2ccccc2)cnc1SCC(N)=O,9.16%
21,Cc1csc(Nc2ccccc2C(F)(F)F)n1,6.46%
22,Cc1nc(N/N=C/c2cccc(F)c2)cc(N2CCOCC2)n1,-41.3%

row,SMILES,"hERG current change (%, negative = inhibition) at 10uM"
1,Cc1cc(C)n(C(=O)CCC(=O)NCc2ccccc2)n1,-0.152%
2,COCCNC(=O)COC(=O)c1cccnc1SC,12.8%
3,Cc1nc(NC(=O)C2CC2)sc1C(=O)Nc1cccc(Cl)c1,22.8%
4,Cc1cccc(C)c1NC(=S)N(CCN1CCCCCC1)Cc1ccco1,-34.9%
5,C=C(C)C(C)(C#CCN1CCCC1)OC(C)=O (stereo not shown),-6.48%
6,CCNc1ccc(C(=O)OCC(=O)N(Cc2ccccc2)C(C)(C)C)cc1[N+](=O)[O-],-6.04%
7,CN1CCN(CCC(=O)Nc2cccc(Br)c2)CC1,-19%
8,CCOC(=O)CSC1=C(C#N)C(c2ccc(Cl)cc2)CC(=O)N1 (stereo not shown),-1.8%
9,COCCN1C(=O)c2cc(C(=O)Nc3cccc(F)c3)ccc2C1Nc1cccc(F)c1 (stereo not shown),7.71%
10,CCC(C)(C)NC(=O)C(c1ccc(O)cc1)N(CCOC)C(=O)CCC(=O)Nc1nccs1 (stereo not shown),13.7%
11,Cc1ccc(OCCOC(=O)Nc2ccccc2)cc1,22.2%
12,CC(=O)c1sc(NC(=O)C2=NN(c3ccccc3)C(=O)CC2)nc1C,1.66%
13,CCCN(CC(=O)Nc1ccccc1OC)C(=O)c1cnc(Cl)c(Cl)c1,13%
14,CCN(CC(O)COCc1ccc(Cl)cc1)C1CCCCC1.Cl (stereo not shown),-22.7%
15,CCOc1ccc(S(=O)(=O)Nc2cccc(C(=O)NCC(c3ccco3)N3CCCC3)c2)cc1 (stereo not shown),-43.2%
16,Cc1cccc(SCc2noc(C(=O)NC(C)C)c2C(=O)O)c1,25.9%
17,CCCS(=O)(=O)N1CCCC(C(=O)NC2CCCC(C)C2C)C1 (stereo not shown),5.1%
18,O=C(CSc1nc(=O)n(CCCN2CCOCC2)c2c1CCCC2)Nc1cccc(F)c1,-56.2%
19,COc1ccccc1C1=NN(C2=NN=C(N)Cc3ncnn32)C(O)(C(F)(F)F)C1 (stereo not shown),14.8%
20,Cc1cccc(C)c1OCC(=O)Nc1ccccc1C(=O)N1CCOCC1,-0.32%
21,Nn1c(SCC(=O)N2CCOCC2)nnc1-c1ccccc1Cl,10.5%
22,O=C(Nc1cc([N+](=O)[O-])ccc1O)c1ccc2c(c1)C(=O)N(Cc1ccco1)C2=O,7.13%

row,SMILES,"hERG current change (%, negative = inhibition) at 10uM"
1,Nc1c(C(=O)N/N=C/c2ccc(F)cc2)oc2nc(-c3ccccc3)cc(-c3ccco3)c12,22.2%
2,O=C(O)c1nccnc1C(=O)Nc1ccc(Oc2c(Cl)cccc2Cl)nc1,-26.1%
3,O=C(Nc1cccc(Cl)c1)Nc1c[nH]c(=O)[nH]c1=O,15.6%
4,CCc1ccccc1NC(=O)C1CCN(S(C)(=O)=O)CC1,8.86%
5,COc1cccc(NC(=O)CCNS(=O)(=O)c2cccc3nonc23)c1,13%
6,CCc1ccc(OCC(=O)NCC(c2ccc(Cl)cc2)N2CCCCC2)cc1 (stereo not shown),-6.4%
7,O=c1[nH]n(CC2COC3(CCCCC3)O2)c(=O)c2ccccc12 (stereo not shown),-5.75%
8,CCOc1ccc(NC(=O)CN(C)C(=O)c2c(C)nn(-c3ccc(F)cc3)c2Cl)cc1OCC,-16.7%
9,COc1ccc(N2CCN(C(=O)c3cc(=O)c4cc(Cl)ccc4o3)CC2)cc1,-76.3%
10,O=C(CSc1ccc(Cl)cc1)Nc1ccccc1N1CCN(C(=O)c2ccccc2)CC1,-14.9%
11,c1ccc(Cc2noc(CN3CCC(CN4CCOCC4)CC3)n2)cc1,4.64%
12,CCN(CC)S(=O)(=O)c1ccc(N2CC(C(=O)NCc3cccnc3)CC2=O)cc1 (stereo not shown),-4.81%
13,CN(C)/C=C/C(=O)c1cc(F)cc(C(F)(F)F)c1,11.1%
14,CN1CCN(S(=O)(=O)c2ccc(NC(=O)c3ccc(F)cc3)cc2)CC1,-10.9%
15,O=c1cc(CN2CCOCC2)c2ccc(O)c(O)c2o1,10.1%
16,CCn1c(SCC(=O)c2ccc(OC)cc2)nnc1C(C)NC(=O)c1ccc(OC)cc1 (stereo not shown),3.46%
17,CNS(=O)(=O)c1cnccc1N1CCN(c2cccc(C)c2)CC1,-9.27%
18,Cc1occc1C(=O)Nc1cnn(CCCC(=O)O)c1,15.8%
19,COc1ccccc1/C=N/NC(=O)C(NC(=O)c1ccccc1)=C(C)C,-9.16%
20,O=C1CC(NNc2ccccc2)C(=O)N1c1ccccc1 (stereo not shown),10.3%
21,NC(=S)c1cc2cc(Cl)ccc2oc1=O,4.62%
22,CC(C)(C)OC(=O)CNC(=O)c1[nH]cnc1C(=O)NCCCCCNC(=O)OC(C)(C)C,-18.4%
